# According to PubChem BioAssay AID624202 (National Center for Advancing Translational Sciences (NCATS), 2012):
# Out of some 380,000 compounds screened, about 4,000 (1.1%) were called active. The shares of active, inactive and inconclusive entries below differ from those in the screen. The call rests on the fitted dose curve; in most records, active means well fitted activation curve with a large enough effect; inconclusive means small, poorly fitted or top-dose-only effect; inactive means no such curve, though single readings can be large or run the other way. Potencies of inconclusive entries are doubtful fits and often do not repeat.
# Assay: qHTS Assay to Identify Small Molecule Activators of BRCA1 Expression; further: nearly all actives have a fitted effect of over 80% in size
# Details: MCF7-BRCA1-FFLuc reporter, luminescence, 48 h; activation: at 46.1 µM (top of the series), scaled: vehicle 0%, 10 µM genistein 100% unless noted
# Procedure, shortened: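 Compounds are tested at multiple concentrations on MCF7 BRCA1-luciferase reporter cells seeded at 2000 per well; after 48 h, a single luminescence end-point is taken and curves fitted to the normalized data.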
# Potency means the concentration at half of the fitted maximal effect; tags describe the fitted curve by direction and shape.
SMILES,Potency,activation
Cc1ccc(-c2csc(N3C(=N)SCC3=O)n2)cc1,"inconclusive: 1.58 µM [activator, full curve, poor fit]",
Cc1ccc(N(C)S(=O)(=O)c2cccc(C(=O)Nc3nc4ccccc4[nH]3)c2)cc1,,inactive: -69.8%
O=c1[nH]c(-c2ccco2)nc2sc3c(c12)CCCC3,"inconclusive: 0.631 µM [activator, full curve, poor fit]",
Cn1nnnc1SCCCNCc1ccccc1OCc1ccccc1Cl,,inactive: -19.7%
CCCc1ccc2oc(C(=O)N3CCC[C@H]3CO)c(C)c2c1,"inconclusive: 10 µM [activator, partial curve, poor fit]",
CCc1ccc(O)c(-c2cc(C(=O)Nc3cccnc3)[nH]n2)c1,"inconclusive: 17.8 µM [activator, single point]",
CC1(C)N([O-])C2=C(c3ccccc3C2=O)[N+](=O)C1(C)C,,inactive: -5.84%
Cc1nnc(SCC(=O)N2CCN(c3cccc(Cl)c3)CC2)n1C1CC1,,inactive: -2.51%
CC(C(=O)Nc1ccccc1)C(=O)Nc1ccccc1,,inactive: -5.84%
C#CCSc1nnc(-c2ccc(O)cc2)o1,"inconclusive: 11.2 µM [activator, partial curve, poor fit]",
CCCNC(=O)C(=O)Nc1ccc(N(C)C)cc1,"inconclusive: 3.16 µM [activator, full curve, poor fit]",
CSc1ccccc1OCc1cc(C(=O)N2CCN(C3CCCC3)C(=O)C2)no1,"inconclusive: 25.1 µM [activator, single point]",
CC(=O)Nc1ccc(/C=C2\C=Cc3ccccc32)cc1,"inconclusive: 3.16 µM [activator, partial curve, poor fit]",
O=C(NC1CC1)c1ccc(-n2cccc2)cc1,"inconclusive: 11.2 µM [activator, partial curve, poor fit]",
Cc1ccc2nc3sc(C(=O)NCc4ccco4)c(N)c3cc2c1,"inconclusive: 3.98 µM [activator, full curve, poor fit]",
CCN(CC(=O)NCc1ccc(F)cc1)Cc1nc2cc(Cl)ccc2c(=O)[nH]1,,inactive: 1.98%
c1ccc(-c2cncn2-c2ccccc2)cc1,"inconclusive: 31.6 µM [activator, single point]",
CN(Cc1ccc(N(C)C)cc1)C(=O)c1cc2ccccc2o1,"inconclusive: 14.1 µM [activator, partial curve, poor fit]",
CCCC1C(C#N)=C(N)Oc2n[nH]c(C(C)(C)C)c21 (stereo not given),,inactive: -14.7%
CCOC(=O)c1c(N)sc(-c2ccccc2)c1C,"inconclusive: 12.6 µM [activator, partial curve, poor fit]",
CC1CN(Cc2csc(-c3ccc(Cl)cc3)n2)CC(C)O1 (stereo not given),"inconclusive: 14.1 µM [activator, partial curve, poor fit]",
CC(=O)OCC(=O)Nc1ccc(N=Nc2ccccc2)cc1,"inconclusive: 1.12 µM [activator, full curve, poor fit]",
CCC1([N+](=O)[O-])COC(C=Cc2ccccc2)OC1 (stereo not given),"inconclusive: 15.8 µM [activator, partial curve, poor fit]",
Cc1c(C(=O)NCC(C)(C)N2CCOCC2)oc2ccccc12,,inactive: 5.54%
Cc1nc(OCC(C)C)c2sc3nc4c(cc3c2n1)COC(C)(C)C4,"inconclusive: 1.12 µM [activator, full curve, poor fit]",

SMILES,Potency,activation
O=c1oc2ccc(Cl)cc2nc1/C=C(\O)c1cccs1,"inconclusive: 1.58 µM [activator, partial curve, poor fit]",
Cc1ccc(C(=O)NC2CCN(CC(=O)NC3CCC(C)CC3)CC2)cc1 (stereo not given),,inactive: -3.46%
COc1ccc(CNC(=O)/C=C/c2cc([N+](=O)[O-])ccc2OC(F)F)cc1,,inactive: 0.676%
NC(=O)c1ccccc1NC(=O)/C=C/c1c(Cl)cccc1Cl,"inconclusive: 3.98 µM [activator, full curve, poor fit]",
N#Cc1cc2c(nc1SCC(N)=O)CCCCC2,"inconclusive: 2.82 µM [activator, full curve, poor fit]",
COC(=O)c1ccc(NC(=O)Nc2ccccc2F)cc1,"inconclusive: 1.58 µM [activator, partial curve, poor fit]",
Cc1ccc2oc(=O)n(CCCOc3ccccc3)c2c1,"inconclusive: 11.2 µM [activator, partial curve, poor fit]",
Cc1ccc2c(CNCc3ccco3)cc(=O)oc2c1,active: 7.94 µM,
c1ccc2c(c1)CC/C2=N/Nc1nc2ccccc2[nH]1,"inconclusive: 3.55 µM [activator, full curve, poor fit]",
O=C(/C=C\Nc1ccc2c(c1)OCO2)c1ccccn1,,inconclusive: -94.6% [activator]
Cc1c(CC(=O)O)c(=O)oc2cc3occ(-c4ccc(F)cc4)c3cc12,"inconclusive: 2.82 µM [activator, partial curve, poor fit]",
CCOC(=O)CSc1nc(-c2ccc3c(c2)OCO3)ccc1C#N,"inconclusive: 2 µM [activator, full curve, poor fit]",
NCc1csc(Nc2nncc3ccccc23)n1,"inconclusive: 35.5 µM [activator, single point]",
CCCCOc1ncnc2c1[nH]c1ccc(OC)cc12,"inconclusive: 3.16 µM [activator, partial curve, poor fit]",
Cc1ccc(-c2ccc(CN3C(C(C)C)C(=O)N(Cc4cn(CCC5OCCO5)nn4)CCS3(=O)=O)cc2)cc1 (stereo not given),,inconclusive: -31.6% [activator]
CC(=O)c1ccc(NC(=O)CSc2nccn2CCc2ccccc2)cc1,active: 12.6 µM,
O=[N+]([O-])c1ccc(Nc2ccccc2O)c([N+](=O)[O-])c1,,inactive: -21.8%
O=C1/C(=C/c2ccc(O)c(O)c2)Oc2cc(O)ccc21,"inconclusive: 6.31 µM [activator, partial curve, poor fit]",
COc1cccc(NC(=O)NCc2ccccc2Cl)c1,active: 12.6 µM,
CCc1ccc(NC(=O)c2ccc(NS(=O)(=O)c3c(C)noc3C)cc2)cc1,,inactive: 5.15%
Cc1nc2ccc(NC(=O)CS(=O)(=O)c3ccc(F)cc3)cc2s1,active: 11.2 µM,
COc1ccc(-c2csc(NC(=O)c3ccoc3C)n2)cc1,"inconclusive: 2 µM [activator, partial curve, poor fit]",
CCOC(=O)c1ccc(NC(=O)C23CCC(C)(C(=O)O2)C3(C)C)cc1 (stereo not given),active: 10 µM,
CCOc1ccc(/C=N/n2cnnc2)cc1,,inactive: 1.81%
COc1cccc(Nc2ncnc3sc(C)cc23)c1,"inconclusive: 35.5 µM [activator, single point]",

SMILES,Potency,activation
O=C(c1cnn(-c2ccccc2)c1)c1cc(F)ccc1O,active: 10 µM,
O=C(Nc1cnc2ccccn2c1=O)c1ccc(Cl)cc1,active: 11.2 µM,
Cn1c(NC(=O)c2cccnc2)nc2ccccc21,"inconclusive: 7.08 µM [activator, partial curve, poor fit]",
COC(=O)c1ccccc1NC(=O)COC(=O)c1ccccc1N=Nc1ccc(N(C)C)cc1,,inactive: -20.2%
O=C(Nc1ccc2[nH]ncc2c1)c1cccc(F)c1,"inconclusive: 12.6 µM [activator, partial curve, poor fit]",
CN(C)c1ccc(N=Cc2nc(-c3ccccc3)oc2O)cc1,"inconclusive: 15.8 µM [activator, partial curve, poor fit]",
CC1CCc2sc(C(=O)NC(C)C3CCCO3)cc2C1 (stereo not given),"inconclusive: 11.2 µM [activator, partial curve, poor fit]",
N#CC1=C(SCC(=O)Nc2ccccc2)NC(=O)CC1c1ccco1 (stereo not given),"inconclusive: 2 µM [activator, partial curve, poor fit]",
CC(C)NC(=O)C1CCN(C(=O)c2cc3sccc3n2Cc2ccc(F)cc2)CC1,,inactive: -81.2%
Cn1c(SCC(=O)c2ccc(F)cc2)nnc1-c1ccccn1,,inactive: 30.7%
Cc1ccc2c(c1)COc1c3ccc(C(=O)O)cc3nn1-2,,inconclusive: -57.1% [activator]
O=C(Nc1ccc(N2CCOCC2)c(F)c1)c1cccs1,"inconclusive: 1.26 µM [activator, full curve, poor fit]",
Cc1cccn2cc(CNc3ccccc3)nc12,active: 14.1 µM,
COC(=O)CSc1nc(C)cc(Oc2ccccc2)n1,,inactive: 0%
CC1CCCCN1C(=O)CSc1nnc(-c2ccc(Cl)s2)o1 (stereo not given),"inconclusive: 11.2 µM [activator, partial curve, poor fit]",
Cc1ccc(NC(=O)Cn2c(O)c(N=NS(=O)(=O)c3ccc(C)cc3)c3ccccc32)cc1,,inactive: -23.2%
Cc1cc(C(=O)N(C)C)sc1-c1ccccc1,"inconclusive: 10 µM [activator, partial curve, poor fit]",
COc1ccc(N=c2cc(-c3ccc(OC)cc3)oc3ccccc23)cc1,,inactive: -21.3%
CC(C)C(=O)NC(c1cccc([N+](=O)[O-])c1)c1ccc2cccnc2c1O (stereo not given),,inactive: -81.7%
O=C(Cc1ccc(Cl)cc1)N1CCc2ccccc2C1,active: 10 µM,
O=C1/C(=C/c2ccc(O)cc2)COc2ccccc21,,inactive: 0%
COc1ccc(C(=O)COc2ccc(F)cc2)c(O)c1,active: 11.2 µM,
Cc1ccnc(NC(=O)CCC(=O)N(CC(=O)NC(C)(C)C)c2ccc3c(c2)OCCO3)c1,,inactive: -8.74%
Cc1csc(NC(=O)c2ccc3nc[nH]c3c2)n1,"inconclusive: 1 µM [activator, full curve, poor fit]",
COc1cccc(C2CC3(CC(C)(C)NC(=S)N3)Oc3cc(O)ccc32)c1 (stereo not given),,inactive: -27.7%
